Source: the supplement of paper PMC11417369
± gives the standard deviation of the averaged measurements. This is one part of the list.

Test system: PfAP2-I AP2 domain 3 (GST-tagged)
Experiment: gcPBM binding intensity (ln(normalized median fluorescence intensity)); higher = stronger DNA binding
In short: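 Binding of GST-tagged P. falciparum DNA-binding domains, expressed in E. coli and used at about 25 μg on average, was carried out for 1 h in 1× PBS containing 1% milk, 0.2 mg/ml BSA, 0.5% salmon testes DNA and 0.03% Triton X-100. The target was an Agilent 4 × 180k array of primer-extended double-stranded 36-bp intergenic genomic probes plus negative controls, read with Alexa488 anti-GST antibody at 488 nm. Binding intensity is the highest Masliner-normalised natural-log median intensity across replicate spots of either probe orientation.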

Point of comparison: “TATATATATATATTATGTACTCATTTATTATCTTTT [XGTACX_site8051]”, “gcPBM binding intensity (ln)” value 9.25 ± 0.16. Against it:
- CACAAATATATACATACACACATATATACGCATATA [CACACA_site395] — lower, 7.79 ± 0.41
- TATTATATGAATAATTGTACGAAATTTAAAAGACAA [XGTACX_site7558] — lower, 7.86 ± 0.39
- AACCAAATTTCACCATGTACATATTGATAAATATAT [XGTACX_site1374] — lower, 7.96 ± 0.49
- ATATGATTTGGATGTAGTACATATTTTTTTATGTTT [XGTACX_site1929] — lower, 7.89 ± 0.51
- GCACCAAAAAAAAGACGTACAGTTATATTAAAATAG [XGTACX_site8926] — lower, 8.36 ± 0.32
- AAATGAACAAGTGGCACACACACATTCTAACTAATT [CACACA_site3203] — lower, 8.24 ± 0.53
- CGGGGGTAGTTTTATGCACACGTTTATTAATGCTTC [CACACA_site5717] — higher, 10.3 ± 0.11
- ACATGAATATATACACGTACATATATACATATATAT [XGTACX_site5872] — lower, 7.85 ± 0.42
- ACCAATAATATACATACACACATAAATGTTTATATA [CACACA_site4328] — lower, 7.74 ± 0.57
- TGAAAAACTATCAGAGTGCATATATAGCTCGATACA — higher, 10 ± 0.38
- TAAAATAATATATGGTGTACACAAAAGTATAAATAA [XGTACX_site4991] — within error, 8.71 ± 0.81
- ATATAAAAAAAATTTAGTACATATATATATATATAT [XGTACX_site8635] — within error, 9.34 ± 0.65
- AAAAAAATAATTAACACACACATGTATATCTATATA [CACACA_site3139] — lower, 7.78 ± 0.53
- ATTACCATATTTTGTACACACATCTTTATCTCAATA [CACACA_site3217] — lower, 8.39 ± 0.46
- TAAAAATTAAAGTGTACACATATATATATATATATA [CACACA_site4781] — within error, 9.47 ± 0.63
- TTTTATGTTTATGTGGTGCATGTTTTGAAGAAAATA [GTGCAC_site9616] — within error, 9.43 ± 0.18
- TATAAACCGACGAAAACACACATATGTAAATATATA [CACACA_site491] — lower, 7.66 ± 0.73
- AAACCTATGTATATTATACACACTCCAAACTATTAT [CACACA_site8536] — lower, 7.96 ± 0.65
- AAAAAAAAAAAGCACACACACATATGCGTATATATA [CACACA_site954] — lower, 7.99 ± 0.45
- GGAGAAAAAAAAAAAAAACACACGGTACATTCAAAG [CACACA_site1503] — lower, 7.78 ± 0.81
- TTTTTTTCGTATATTACACACTATATATAGAAATTA [CACACA_site298] — lower, 8 ± 0.4
- AAAAAATGTAAATATAAACAACCAAAGGGGGTATAC [GTGCAC_negctrl_site465] — lower, 8.12 ± 0.38
- TTATTAAAGGAAAAATGTACATATAAATGAATATGT [XGTACX_site23] — lower, 7.9 ± 0.68
- GAAAAAAAACACATTGTGCACTTTTCCTTAAGTATA [GTGCAC_site9475] — higher, 10.5 ± 0.21
- ATAATATTTTATGGTTGTACTTTTAGTTCTTTTTTT [XGTACX_site5756] — lower, 7.6 ± 0.65
- ATTAAATATATTTTGCGTACACAAAAAAATACGTTC [XGTACX_site3862] — lower, 8.44 ± 0.2
- TACGTGAAGTTATATACACACATAAATATGTCTGTA [CACACA_site7463] — lower, 7.45 ± 0.54
- TTAAAGTATAACTGTACATGCGAGTAAAAGAATGAC [TGCATGCA_site899] — lower, 8.39 ± 0.69
- TATGTTTTTCGGTATGCATGCATATGCTTAATAATA [TGCATGCA_site184] — lower, 7.97 ± 0.65
- AATATTAAACAAATGAAAAAAAAATATATATTATAT [CACACA_negctrl_site742] — lower, 7.7 ± 0.59
- TTTAATTAAAATATATGTACATATATATATATATAT [XGTACX_site4517] — within error, 9.28 ± 0.042
- AATATATATATGATTATATATATATATATATATATA [GTGCAC_negctrl_site290] — within error, 9.12 ± 0.54
- AAAATAACACAAATGGGTACATATTATATTAAATAA [XGTACX_site7027] — lower, 7.78 ± 0.3
- ATATATTCATTTTTATGTACGTAAATTGTAAATTGG [XGTACX_site8242] — lower, 8.16 ± 0.099
- AAAATAATAATAAAAAGTACATGTGTATATAATAAA [XGTACX_site754] — lower, 8.11 ± 0.51
- TGCATTATTTTATGAAGTACATATGAACAAAAAATT [XGTACX_site2185] — lower, 8.25 ± 0.34
- AAATTATCCAAAAATTGTACTTAAAACAACATAAAA [XGTACX_site6238] — lower, 7.62 ± 0.39
- AAAGAAGGTAAACACACACACACACCGACAAAAAAA [CACACA_site9255] — lower, 7.92 ± 0.45
- ACCATTTGTAGGTAAACACACATTATTCTTAATATC [CACACA_site5453] — lower, 7.78 ± 0.61
- TTTCTCTTATTCCAATCTATAATAAGTATCAATATT [CACACA_negctrl_site179] — lower, 7.7 ± 0.6
- AATATATGGTTTCATGATATAAAATTCAATTTAATG [GTGCAC_negctrl_site610] — lower, 7.4 ± 0.47
- TATATATATATATATGTATGCATGTCCTTTTTTATT [TGCATGCA_site344] — within error, 9.39 ± 0.16
- ATTTTTTTTAAACGAAGTACAATTTGTGCATTGGAA [XGTACX_site8109] — within error, 10 ± 0.86
